The values below come from a compilation of properties of binary mixtures (doi:10.1021/acs.jpcb.7b01654).

The data set in a line: xn = mol fraction of the nth substance listed. The settings on record: 293.15 K, 100 kPa.

The densities may have been worked out from excess volumes.

For the molecule `CC[n+]1ccn(C)c1.O=S(=O)([N-]S(=O)(=O)C(F)(F)F)C(F)(F)F` + CCCCCCCCCCCC[n+]1ccn(C)c1.O=S(=O)([N-]S(=O)(=O)C(F)(F)F)C(F)(F)F, the mass density (commonly the mass of a sample divided by its volume) (x2 = 0) stood at 1524 kg/m3.

Consider `CCCCCCCCCCCC[n+]1ccn(C)c1.O=S(=O)([N-]S(=O)(=O)C(F)(F)F)C(F)(F)F` + CC[n+]1ccn(C)c1.O=S(=O)([N-]S(=O)(=O)C(F)(F)F)C(F)(F)F, for which the mass density is, setting by setting: (x1 = 0.04) 1506.7 kg/m3; (x1 = 0.08) 1490.4 kg/m3; (x1 = 0.24) 1426.8 kg/m3; (x1 = 0.32) 1396.6 kg/m3; (x1 = 0.43) 1371 kg/m3; (x1 = 0.52) 1344.3 kg/m3. Also, the mass density runs as follows: (x1 = 0.63) 1311.4 kg/m3; (x1 = 0.74) 1294.5 kg/m3; (x1 = 0.87) 1270.9 kg/m3; (x1 = 0.92) 1261.7 kg/m3; (x1 = 0.96) 1255.1 kg/m3; (x2 = 0.01) 1250.1 kg/m3.
